The list shows a part of the results.

The target in the assay is T1, OsWOX13 (Oryza sativa, UniProt Q5QMM3 1-267).
T1 sequence: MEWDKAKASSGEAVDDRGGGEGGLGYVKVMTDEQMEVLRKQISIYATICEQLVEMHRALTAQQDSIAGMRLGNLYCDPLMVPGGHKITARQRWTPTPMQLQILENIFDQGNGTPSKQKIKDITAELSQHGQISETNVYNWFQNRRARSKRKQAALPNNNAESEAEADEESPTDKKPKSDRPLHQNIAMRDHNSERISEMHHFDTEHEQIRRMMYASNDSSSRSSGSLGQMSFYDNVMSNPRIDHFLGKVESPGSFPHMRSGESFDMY
The assay is described as follows: protein-binding microarray (RPBM); PBS, 2% BSA, 51.3 ng/ul salmon testes DNA, 50 uM zinc acetate, 200 nM TF, 25 C, 1 h; high values mean tight binding. The following applies: protein: recombinant; tags: N-terminal polyhistidine and DsRed monomer fusion (pET32a); label: CyDye5-dUTP incorporated in the synthesized complementary strand; 3' TTTTT single-stranded linker to array surface; dsDNA, one strand shown. The procedure, abridged: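 Polyhistidine-tagged DsRed fusions of transcription factors, joined at the N-terminus, were expressed in E. coli BL21-CodonPlus and isolated on Ni–NTA. They were incubated at 200 nM for 1 h at 25 °C on a custom Agilent array, double-stranded and BSA-blocked, in PBS with 2% BSA, salmon testes DNA and 50 µM zinc acetate. The binding signal is per-feature fluorescence intensity (arbitrary units) read on an Axon 4000B scanner after washing.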
On to “ATGCTCATACTGATTATCCAATCACTGATCTACTCCAAATCGGAGTCACCTAGTGCAG”, for which the binding signal was 21200 fluorescence intensity (a.u.).

As to “AAATGCACTCTTTTCATTTCACCTAGACACAACCTAGTTTCGGAGTCACCTAGTGCAG”, the binding signal was 44800 fluorescence intensity (a.u.).

“TACACTAATTAATTAAGCATTAATCGTGGGAAGAGTAACGCGGAGTCACCTAGTGCAG”: the binding signal is 47000 fluorescence intensity (a.u.).

“CCATCCGCCCCAGATTTATCAATTACTCCTCGTCATCTCGCGGAGTCACCTAGTGCAG”: the binding signal is 5510 fluorescence intensity (a.u.).

Regarding “CTTAATTACCGGCCGGTTCGAAACAATTTGATTTGATCCCCGGAGTCACCTAGTGCAG”, the binding signal was 20600 fluorescence intensity (a.u.).

Consider “TCTGATTAGGTAGGTAGCAAACGGACGATCATTTGGACCGCGGAGTCACCTAGTGCAG”, for which the binding signal was 44000 fluorescence intensity (a.u.).

Regarding “TTTTATGATTGATTTGGCACCACTGCTACAATAATGCATCCGGAGTCACCTAGTGCAG”, the binding signal is 27400 fluorescence intensity (a.u.).

“TAAAATTTAATTAATTATGTGTTAATCTATCGCTCCGTTTCGGAGTCACCTAGTGCAG”: the binding signal is 46800 fluorescence intensity (a.u.).

On to “CTATTAAATTAGCTATAGATAAATTAAAGCTAGCAGTAGGCGGAGTCACCTAGTGCAG”, for which the binding signal was 40300 fluorescence intensity (a.u.).

Take “GCCGTCAATCAAAGCAGAGGCCCAGCTACATAACTGGGCTCGGAGTCACCTAGTGCAG”: the binding signal is 20100 fluorescence intensity (a.u.).

On to “ACTAAGCTTCAATCTGCCATCATCATGGATATGATCATTGCGGAGTCACCTAGTGCAG”, for which the binding signal was 3920 fluorescence intensity (a.u.).

With “TGCGTTTCTCAAATTATACAAGTCATGATGGATATGTCGTCGGAGTCACCTAGTGCAG”, the binding signal is 3460 fluorescence intensity (a.u.).

“ATGATAGATTACATATTTACAGTGATTAAGCATAGCATTACGGAGTCACCTAGTGCAG”: the binding signal was 39300 fluorescence intensity (a.u.).

For the sequence “AATAATTAATTCATTTGTTTATACACTTAAATAGCTAATACGGAGTCACCTAGTGCAG”, the binding signal was 40500 fluorescence intensity (a.u.).

Take “TATATTATGATTTATTTTAGAAAATACCAGATACTAAGAGCGGAGTCACCTAGTGCAG”: the binding signal was 5780 fluorescence intensity (a.u.).

Regarding “GAGTAATTGCTTATTATACTATTAATATATGGTCACACCTCGGAGTCACCTAGTGCAG”, the binding signal is 48100 fluorescence intensity (a.u.).

Take “CAACTTAATTTTATCTATGCAACCTTATGGTCAAATCTGTCGGAGTCACCTAGTGCAG”: the binding signal was 7480 fluorescence intensity (a.u.).

For the sequence “TTATCTACTGCAAATTTGTAAATTACCATGACAAGCCGACCGGAGTCACCTAGTGCAG”, the binding signal was 4430 fluorescence intensity (a.u.).

Turning to “ATAAAATTACATATGTAGTTTTAGTGTATTTACCATGTGACGGAGTCACCTAGTGCAG”, the binding signal is 5300 fluorescence intensity (a.u.).

For the sequence “AATAATTTTATTTACATACACAGGAAACTAAAATTTTCTACGGAGTCACCTAGTGCAG”, the binding signal was 3200 fluorescence intensity (a.u.).

For the sequence “TGCTTCAATTATCCAGCTTTGGAAACTCGCTGTTTGTTTCCGGAGTCACCTAGTGCAG”, the binding signal was 4980 fluorescence intensity (a.u.).

As to “GTGGATTCAAATGGATTAGTTAAACTGGCAGATTTTGGGCCGGAGTCACCTAGTGCAG”, the binding signal was 4510 fluorescence intensity (a.u.).

On to “AGTACTTAATTTAGTCCCACGTACATTTAACTATTAACCGCGGAGTCACCTAGTGCAG”, for which the binding signal was 7620 fluorescence intensity (a.u.).

Consider “AACTAATATAATTTCTATTTTCATATGAATTAGTAAAATTCGGAGTCACCTAGTGCAG”, for which the binding signal is 5040 fluorescence intensity (a.u.).

Turning to “TGCTATCCAAAGACTCTAATTGACGATGAACTTGCAGTTTCGGAGTCACCTAGTGCAG”, the binding signal is 9330 fluorescence intensity (a.u.).

As for “TTTGATTGTGGTTATTGCACTGAAATTTTACAGATATTGTCGGAGTCACCTAGTGCAG”, the binding signal is 31800 fluorescence intensity (a.u.).

Regarding “CACCACTCAAGATGCTCTGATTGGGCCATTGTGGTGTATGCGGAGTCACCTAGTGCAG”, the binding signal is 16800 fluorescence intensity (a.u.).

For “TGAAGTACTAATCACATCTATCACCTCATTCAATGAGTAACGGAGTCACCTAGTGCAG”, the binding signal was 8110 fluorescence intensity (a.u.).

Consider “TTGTAATAACTGTTAGAGCAGTGAATTACTACCATTTGTCCGGAGTCACCTAGTGCAG”, for which the binding signal is 3300 fluorescence intensity (a.u.).

As for “CGTCCAATCAAAATGATTCATCAAATCCTACACGTTGGTGCGGAGTCACCTAGTGCAG”, the binding signal is 36600 fluorescence intensity (a.u.).

As for “TTCGATCCTGACTGGAATTGGATGCCTAGTTTGCCTTGCCCGGAGTCACCTAGTGCAG”, the binding signal is 4190 fluorescence intensity (a.u.).

On to “GATTGATGGACGGCTCAGATTGTTCTTGCGCCGGTAAAGTCGGAGTCACCTAGTGCAG”, for which the binding signal is 23300 fluorescence intensity (a.u.).

As for “CTTCCTAATTGCAGTAGAAACACTTGCTTTCACATATTTCCGGAGTCACCTAGTGCAG”, the binding signal is 8170 fluorescence intensity (a.u.).

Turning to “CTACTGATTGTATTGATTGGGTAGCTGGATTGAAGTTAATCGGAGTCACCTAGTGCAG”, the binding signal is 57000 fluorescence intensity (a.u.).

For the sequence “ATTAAATTTTAGACGATACTATCTTGTCCAATTACTCATACGGAGTCACCTAGTGCAG”, the binding signal is 6840 fluorescence intensity (a.u.).

With “CCTTTATATCATTATTTACATTGGACATATAGTCGATTGCCGGAGTCACCTAGTGCAG”, the binding signal is 3240 fluorescence intensity (a.u.).

“TGGAATTGTATTGGCTGATAGATACATACCATTTCTAACTCGGAGTCACCTAGTGCAG”: the binding signal is 9180 fluorescence intensity (a.u.).

Regarding “TTGTGTTGATGGATGATGCGATATCCTCTTCAGTGAATGCCGGAGTCACCTAGTGCAG”, the binding signal was 8900 fluorescence intensity (a.u.).

As to “AGATTGATTAGTACCACCTCGGCTAGCGGAGGAAGGGCACCGGAGTCACCTAGTGCAG”, the binding signal is 40500 fluorescence intensity (a.u.).

In the case of “GTTAATAATTTCACCGGACTTTATATATCTACTCCTTCGCCGGAGTCACCTAGTGCAG”, the binding signal was 7960 fluorescence intensity (a.u.).

Take “ATGCTTTGATTGAAATCAAGTACTCTGAAGCTAGTCATTCCGGAGTCACCTAGTGCAG”: the binding signal was 56700 fluorescence intensity (a.u.).

As for “CGTGCAGATTGGACAAAGCTAGCTACTACCACCGTCGCAACGGAGTCACCTAGTGCAG”, the binding signal was 7640 fluorescence intensity (a.u.).

For the origin of these results see publication PMC7819943, “Rice protein-binding microarrays: a tool to detect cis-acting elements near promoter regions in rice”.
